How the values were obtained:
CHO-k1 cells [1] = assay: Toxicity of the polypeptides alone to the cultured cells; type: cell-based; details: for Cytotoxicity when given alone: at higher concentrations
CHO-k1 cells [2] = assay: PM substrate control: influence of substrate on CHO-k1 dye reduction rate; type: cell-based

Compound: poly-D-lysine
- Cytotoxicity when given alone (CHO-k1 cells [1]): some cytotoxicity

Compound: O=C[C@H](O)[C@@H](O)[C@H](O)[C@H](O)CO [D-glucose]
- Ratio (panel average rate divided by well average rate) (CHO-k1 cells [2]; PM1 C9): 0.9547
- Dye reduction rate, substrate control (CHO-k1 cells [2]; PM1 C9, no C. difficile, panel average 74.93): 78.48

Compound: poly-L-lysine
- Cytotoxicity when given alone (CHO-k1 cells [1]): some cytotoxicity

Compound: protamine
- Toxicity to the cultured cells (CHO-k1 cells [1]; compared with poly-L-lysine and poly-D-lysine): much less toxic
